{
  "source": "the supplement of paper PMC10369915",
  "binders": {"B1": {"name": "RPL35_Y78_K77N (peptide)", "chain": "YKGKNYKPLDL"}, "B2": {"name": "RPF2_Y109_YF (peptide)", "chain": "VIGRMYDFHVL"}, "B3": {"name": "RPF2_Y109_G106V_YF (peptide)", "chain": "VIVRMYDFHVL"}, "B4": {"name": "RPS19_Y48_P47L (peptide)", "chain": "KELALYDENWF"}, "B5": {"name": "RPS19_Y54_S59F (peptide)", "chain": "DENWFYTRAAF"}, "B6": {"name": "RPL21_Y13 (peptide)", "chain": "RRGTRYMFSRP"}, "B7": {"name": "RPL10_Y75 (peptide)", "chain": "ICANKYMVKSC"}, "B8": {"name": "RPL35A_Y34_V33I (peptide)", "chain": "KIEGIYARDET"}, "B9": {"name": "RPGRIP1L_Y196 (peptide)", "chain": "PMFTKYGNSLL"}, "B10": {"name": "RPGRIP1_Y826_R827L_YF (peptide)", "chain": "SPFAVYLFFTF"}, "B11": {"name": "RPS19_Y48_W52R (peptide)", "chain": "KELAPYDENRF"}, "B12": {"name": "RPGRIP1_Y846 (peptide)", "chain": "ASNNPYFRDQA"}, "B13": {"name": "RPL21_Y30_R32Q (peptide)", "chain": "VPLATYMQIYK"}, "B14": {"name": "RPS19_Y54 (peptide)", "chain": "DENWFYTRAAS"}, "B15": {"name": "RPL35_Y78 (peptide)", "chain": "YKGKKYKPLDL"}, "B16": {"name": "RPF2_Y59 (peptide)", "chain": "ALKKPYGVLYK"}, "B17": {"name": "RPL5_Y207_YF (peptide)", "chain": "QNVADYMRFLM"}, "B18": {"name": "RPF2_Y59_YF (peptide)", "chain": "ALKKPYGVLFK"}, "B19": {"name": "RPF2_Y59_G60S_YF (peptide)", "chain": "ALKKPYSVLFK"}},
  "note": "Some of the results follow. Cut-off read from the data, not from the text of the source: active = 3.2 or more and inactive = the rest. Only a few entries rise above the background.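 Note: displayed peptides selected on beads carrying the immobilized SH2 domain, with library peptides lacking any tyrosine serving as negative controls.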",
  "data": [
    {"target": "SHP2 C-SH2 domain E139D", "assay": "enrichment score (SH2-bound / input frequency) (ratio); higher = stronger binding; tyrosines were phosphorylated by kinases first", "conditions": "peptide library: pTyr-Var", "values": [
      {"binder": "B1", "enrichment score": "inactive: 0.911"},
      {"binder": "B2", "enrichment score": "inactive: 2.2"},
      {"binder": "B3", "enrichment score": "inactive: 3.19"},
      {"binder": "B4", "enrichment score": "inactive: 1.01"},
      {"binder": "B5", "enrichment score": "inactive: 0.896"},
      {"binder": "B6", "enrichment score": "inactive: 0.205"},
      {"binder": "B7", "enrichment score": "inactive: 2.43"},
      {"binder": "B8", "enrichment score": "inactive: 0.795"},
      {"binder": "B9", "enrichment score": "inactive: 1.18"},
      {"binder": "B10", "enrichment score": "inactive: 0.449"},
      {"binder": "B11", "enrichment score": "inactive: 0.626"},
      {"binder": "B12", "enrichment score": "inactive: 0.633"},
      {"binder": "B13", "enrichment score": "inactive: 0.96"},
      {"binder": "B14", "enrichment score": "inactive: 0.918"},
      {"binder": "B15", "enrichment score": "inactive: 0.569"},
      {"binder": "B16", "enrichment score": "inactive: 2.34"},
      {"binder": "B17", "enrichment score": "inactive: 1.82"},
      {"binder": "B18", "enrichment score": "inactive: 2.67"},
      {"binder": "B19", "enrichment score": "inactive: 2.62"}
    ]},
    {"target": "SHP2 C-SH2 domain wild-type", "assay": "enrichment score (SH2-bound / input frequency) (ratio); higher = stronger binding; tyrosines were phosphorylated by kinases first", "conditions": "peptide library: pTyr-Var", "values": [
      {"binder": "B1", "enrichment score": "inactive: 1.09"},
      {"binder": "B2", "enrichment score": "inactive: 1.64"},
      {"binder": "B3", "enrichment score": "inactive: 3.08"},
      {"binder": "B4", "enrichment score": "inactive: 0.984"},
      {"binder": "B5", "enrichment score": "inactive: 0.879"},
      {"binder": "B6", "enrichment score": "inactive: 0.189"},
      {"binder": "B7", "enrichment score": "inactive: 2.11"},
      {"binder": "B8", "enrichment score": "inactive: 0.812"},
      {"binder": "B9", "enrichment score": "inactive: 0.787"},
      {"binder": "B10", "enrichment score": "inactive: 0.586"},
      {"binder": "B11", "enrichment score": "inactive: 0.647"},
      {"binder": "B12", "enrichment score": "inactive: 0.454"},
      {"binder": "B13", "enrichment score": "inactive: 0.849"},
      {"binder": "B14", "enrichment score": "inactive: 0.581"},
      {"binder": "B15", "enrichment score": "inactive: 0.748"},
      {"binder": "B16", "enrichment score": "inactive: 2.05"},
      {"binder": "B17", "enrichment score": "inactive: 1.26"},
      {"binder": "B18", "enrichment score": "inactive: 2.59"},
      {"binder": "B19", "enrichment score": "inactive: 2.86"}
    ]},
    {"target": "SHP2 N-SH2 domain L43F", "assay": "enrichment score (SH2-bound / input frequency) (ratio); higher = stronger binding; tyrosines were phosphorylated by kinases first", "conditions": "peptide library: pTyr-Var", "values": [
      {"binder": "B1", "enrichment score": "inactive: 0.801"},
      {"binder": "B2", "enrichment score": "inactive: 3.11"},
      {"binder": "B3", "enrichment score": "active: 3.99"},
      {"binder": "B4", "enrichment score": "inactive: 1.04"},
      {"binder": "B5", "enrichment score": "inactive: 0.702"},
      {"binder": "B6", "enrichment score": "inactive: 0.218"},
      {"binder": "B7", "enrichment score": "inactive: 2.74"},
      {"binder": "B8", "enrichment score": "inactive: 1.7"},
      {"binder": "B9", "enrichment score": "inactive: 0.771"},
      {"binder": "B10", "enrichment score": "inactive: 0.532"},
      {"binder": "B11", "enrichment score": "inactive: 0.685"},
      {"binder": "B12", "enrichment score": "inactive: 0.613"},
      {"binder": "B13", "enrichment score": "inactive: 1.07"},
      {"binder": "B14", "enrichment score": "inactive: 0.853"},
      {"binder": "B15", "enrichment score": "inactive: 0.541"},
      {"binder": "B16", "enrichment score": "inactive: 2.1"},
      {"binder": "B17", "enrichment score": "inactive: 1.49"},
      {"binder": "B18", "enrichment score": "inactive: 2.73"},
      {"binder": "B19", "enrichment score": "inactive: 2.77"}
    ]},
    {"target": "SHP2 N-SH2 domain T42A", "assay": "enrichment score (SH2-bound / input frequency) (ratio); higher = stronger binding; tyrosines were phosphorylated by kinases first", "conditions": "peptide library: pTyr-Var", "values": [
      {"binder": "B1", "enrichment score": "inactive: 0.955"},
      {"binder": "B2", "enrichment score": "inactive: 1.81"},
      {"binder": "B3", "enrichment score": "inactive: 2.38"},
      {"binder": "B4", "enrichment score": "inactive: 0.847"},
      {"binder": "B5", "enrichment score": "inactive: 0.881"},
      {"binder": "B6", "enrichment score": "inactive: 0.119"},
      {"binder": "B7", "enrichment score": "inactive: 2.26"},
      {"binder": "B8", "enrichment score": "inactive: 0.832"},
      {"binder": "B9", "enrichment score": "inactive: 1.07"},
      {"binder": "B10", "enrichment score": "inactive: 0.612"},
      {"binder": "B11", "enrichment score": "inactive: 0.719"},
      {"binder": "B12", "enrichment score": "inactive: 0.529"},
      {"binder": "B13", "enrichment score": "inactive: 1.06"},
      {"binder": "B14", "enrichment score": "inactive: 0.732"},
      {"binder": "B15", "enrichment score": "inactive: 0.477"},
      {"binder": "B16", "enrichment score": "inactive: 2.02"},
      {"binder": "B17", "enrichment score": "inactive: 1.51"},
      {"binder": "B18", "enrichment score": "inactive: 2.33"},
      {"binder": "B19", "enrichment score": "inactive: 2.29"}
    ]},
    {"target": "SHP2 N-SH2 domain T52S", "assay": "enrichment score (SH2-bound / input frequency) (ratio); higher = stronger binding; tyrosines were phosphorylated by kinases first", "conditions": "peptide library: pTyr-Var", "values": [
      {"binder": "B1", "enrichment score": "inactive: 0.931"},
      {"binder": "B2", "enrichment score": "inactive: 2.82"},
      {"binder": "B3", "enrichment score": "active: 3.61"},
      {"binder": "B4", "enrichment score": "inactive: 1.13"},
      {"binder": "B5", "enrichment score": "inactive: 0.815"},
      {"binder": "B6", "enrichment score": "inactive: 0.256"},
      {"binder": "B7", "enrichment score": "inactive: 2.36"},
      {"binder": "B8", "enrichment score": "inactive: 0.951"},
      {"binder": "B9", "enrichment score": "inactive: 1.03"},
      {"binder": "B10", "enrichment score": "inactive: 0.646"},
      {"binder": "B11", "enrichment score": "inactive: 0.689"},
      {"binder": "B12", "enrichment score": "inactive: 0.577"},
      {"binder": "B13", "enrichment score": "inactive: 1"},
      {"binder": "B14", "enrichment score": "inactive: 0.707"},
      {"binder": "B15", "enrichment score": "inactive: 0.71"},
      {"binder": "B16", "enrichment score": "inactive: 2.55"},
      {"binder": "B17", "enrichment score": "inactive: 1.8"},
      {"binder": "B18", "enrichment score": "inactive: 2.84"},
      {"binder": "B19", "enrichment score": "inactive: 2.6"}
    ]},
    {"target": "SHP2 N-SH2 domain wild-type", "assay": "enrichment score (SH2-bound / input frequency) (ratio); bacterial display of known human phosphotyrosine sites (pTyr-Var adds point mutants) read by sequencing; higher = stronger binding; tyrosines were phosphorylated by kinases first", "conditions": "peptide library: pTyr-Var", "values": [
      {"binder": "B1", "enrichment score": "inactive: 1.28"},
      {"binder": "B2", "enrichment score": "inactive: 1.67"},
      {"binder": "B3", "enrichment score": "inactive: 3.12"},
      {"binder": "B4", "enrichment score": "inactive: 1.29"},
      {"binder": "B5", "enrichment score": "inactive: 0.692"},
      {"binder": "B6", "enrichment score": "inactive: 0.258"},
      {"binder": "B7", "enrichment score": "inactive: 2.24"},
      {"binder": "B8", "enrichment score": "inactive: 0.931"},
      {"binder": "B9", "enrichment score": "inactive: 1.01"},
      {"binder": "B10", "enrichment score": "inactive: 0.71"},
      {"binder": "B11", "enrichment score": "inactive: 0.874"},
      {"binder": "B12", "enrichment score": "inactive: 0.552"},
      {"binder": "B13", "enrichment score": "inactive: 0.735"},
      {"binder": "B14", "enrichment score": "inactive: 0.726"},
      {"binder": "B15", "enrichment score": "inactive: 0.802"},
      {"binder": "B16", "enrichment score": "inactive: 2.56"},
      {"binder": "B17", "enrichment score": "inactive: 2.03"},
      {"binder": "B18", "enrichment score": "inactive: 2.38"},
      {"binder": "B19", "enrichment score": "inactive: 2"}
    ]}
  ]
}
